The list shows a part of the results.
Each sequence was assayed against T1, OsWOX13 (Oryza sativa, UniProt Q5QMM3 1-267) (assay: protein-binding microarray (RPBM); PBS, 2% BSA, 51.3 ng/ul salmon testes DNA, 50 uM zinc acetate, 200 nM TF, 25 C, 1 h; high values mean tight binding). Conditions: protein: recombinant; tags: N-terminal polyhistidine and DsRed monomer fusion (pET32a); label: CyDye5-dUTP incorporated in the synthesized complementary strand; 3' TTTTT single-stranded linker to array surface; dsDNA, one strand shown.
T1 sequence: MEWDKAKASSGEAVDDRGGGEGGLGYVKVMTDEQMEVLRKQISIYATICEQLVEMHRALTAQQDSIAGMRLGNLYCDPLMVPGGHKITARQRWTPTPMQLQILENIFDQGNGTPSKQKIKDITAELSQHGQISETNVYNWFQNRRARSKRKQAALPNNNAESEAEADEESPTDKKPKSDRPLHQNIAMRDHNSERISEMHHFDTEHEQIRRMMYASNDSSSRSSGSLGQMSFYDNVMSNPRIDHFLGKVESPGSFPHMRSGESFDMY
Method in brief: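 Transcription factors were made in E. coli BL21-CodonPlus as N-terminal fusions to a polyhistidine tag and DsRed, then purified on Ni–NTA. After primer extension with Cy5-dUTP and blocking with 2% BSA, a custom Agilent array was exposed for 1 h at 25 °C to 200 nM protein in PBS, 2% BSA, salmon testes DNA and 50 µM zinc acetate. Washed arrays were scanned on an Axon 4000B, and the binding signal is per-feature fluorescence intensity in arbitrary units.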

Sequence	binding signal
AGTAATTTATTCCTTATTGGTTTTCACAACTCAAATAATTCGGAGTCACCTAGTGCAG	11400 fluorescence intensity (a.u.)
GCCTAATTAGTTCATGATTAGCAACAAGTGCTACAGTAACCGGAGTCACCTAGTGCAG	49300 fluorescence intensity (a.u.)
TTTTCCCGGTCAACTAGTAATTGATTAGTAACTCGTACAACGGAGTCACCTAGTGCAG	20500 fluorescence intensity (a.u.)
TTAACGGTTGGTAATTAGCTACGTGGATCAACGACGATACCGGAGTCACCTAGTGCAG	7660 fluorescence intensity (a.u.)
TAAATTGACAAATTCAACCTAGGCCTGGACTTATTTGGCGCGGAGTCACCTAGTGCAG	57500 fluorescence intensity (a.u.)
ACAAAGATGATGGATTTGATGTCGTCCATGGCGAGCGGGACGGAGTCACCTAGTGCAG	4510 fluorescence intensity (a.u.)
GGCTGACAGTGATAGAACAAATCGAAGTCAACCTTGATTTCGGAGTCACCTAGTGCAG	23700 fluorescence intensity (a.u.)
CCTAGTAATTGCTGATTGCTGTCGCCTTAATTTCAAATTGCGGAGTCACCTAGTGCAG	26400 fluorescence intensity (a.u.)
TATCAAGTCAATCAACCAAATGTCCATTCATACAACTATCCGGAGTCACCTAGTGCAG	15300 fluorescence intensity (a.u.)
AAGTAAATTTATATATATGATCAAAGTAACATACATATACCGGAGTCACCTAGTGCAG	12400 fluorescence intensity (a.u.)
GATGACATTGATGAGATCAGGCAGTATAGGGATGCACGGTCGGAGTCACCTAGTGCAG	8940 fluorescence intensity (a.u.)
CATGGTCGTGATTGTATCTGTAGTTTCTGTACAGAGTAGCCGGAGTCACCTAGTGCAG	7690 fluorescence intensity (a.u.)
CTAAATCAATTCTAAATCGGTAGTTTTATGATAATTTTGTCGGAGTCACCTAGTGCAG	5000 fluorescence intensity (a.u.)
GAAATTTGTGATATATATATATATATCACTAATTAATAGTCGGAGTCACCTAGTGCAG	4970 fluorescence intensity (a.u.)
TTGTTGATTTGATAACAAAATGAACAAGCTGCTTTAAATTCGGAGTCACCTAGTGCAG	3670 fluorescence intensity (a.u.)
TAAAATTAAATCGTAACCGATATACAATTACAATATAACTCGGAGTCACCTAGTGCAG	4960 fluorescence intensity (a.u.)
CTATGATTGGTCAAGTGCTGTTGCTATTTCTCTGCTGATACGGAGTCACCTAGTGCAG	40900 fluorescence intensity (a.u.)
TGCCATTAATGATTTCAAATTTGATCAATATATCCCTCCACGGAGTCACCTAGTGCAG	17900 fluorescence intensity (a.u.)
CATCATACCTCGTAATTACCCTGGTCATTGTGTCTATGGACGGAGTCACCTAGTGCAG	3910 fluorescence intensity (a.u.)
CGGATTGATAGTCACTAATACCTATGTTTTGTGATGGGGACGGAGTCACCTAGTGCAG	42000 fluorescence intensity (a.u.)
CCTCCTTGATGGGATGGACGGGAGGGTGCTTTGAATATTTCGGAGTCACCTAGTGCAG	6960 fluorescence intensity (a.u.)

Sequence	binding signal
AGTGATTTTGCTCATCAAGTAGTGGTTGTGACTTGTGAGGCGGAGTCACCTAGTGCAG	19300 fluorescence intensity (a.u.)
TGAGTGATCGTGTAATTCGCACGTAATTACCGAAGAAAGGCGGAGTCACCTAGTGCAG	3660 fluorescence intensity (a.u.)
TAAATAAATTGCTAAATATATTATAGAGAGTTTGATCCTGCGGAGTCACCTAGTGCAG	19700 fluorescence intensity (a.u.)
CCTGACATTACTGTCACTACACACCATGCGTATGATGCAACGGAGTCACCTAGTGCAG	4990 fluorescence intensity (a.u.)
CCCTGACTATATTCATTATTACATCTCACATAGCGATACGCGGAGTCACCTAGTGCAG	4660 fluorescence intensity (a.u.)
ATCATATCAGTAAATTAGTTGGAAACCGAAGTCATAAACTCGGAGTCACCTAGTGCAG	3290 fluorescence intensity (a.u.)
ACATTAAACCTATAGTTTTATGATAAGTTTGGTGTTAAATCGGAGTCACCTAGTGCAG	16900 fluorescence intensity (a.u.)
TTCGCTTTGATGGACGGCTCAGATCGGCTCCTAATCCATCCGGAGTCACCTAGTGCAG	3310 fluorescence intensity (a.u.)
GGGCATAGTTACTATTGATTAGGATCTCACTAATGCAGATCGGAGTCACCTAGTGCAG	6120 fluorescence intensity (a.u.)
CATTTAAACAGATAAATATGTCGTTTTCTAATTGTAATTGCGGAGTCACCTAGTGCAG	10400 fluorescence intensity (a.u.)
GAACAATAGATTAATATATAATTAAATAAATATTAGTCAACGGAGTCACCTAGTGCAG	25100 fluorescence intensity (a.u.)
CCTAACTGAGAGCCCTCCACTCGGAGCAACTTATAGTTCACGGAGTCACCTAGTGCAG	3390 fluorescence intensity (a.u.)
TGAAATTAATAGGATGCCACGTCCTCATCCTAGGTAAAATCGGAGTCACCTAGTGCAG	4770 fluorescence intensity (a.u.)
CTGTTTGGCCATAATTGGAAACCGAAACTGCGCACAGCAGCGGAGTCACCTAGTGCAG	6590 fluorescence intensity (a.u.)
AACATTAATTGCAAGTTATGACCTTTCTTTTCCCCTAATACGGAGTCACCTAGTGCAG	26400 fluorescence intensity (a.u.)
TTTAATGGTTAGAGTCATGATTGGCTTAGGTACTGTGAGACGGAGTCACCTAGTGCAG	3440 fluorescence intensity (a.u.)
ATTATTCCGTGTATGTTGATTATCTCATCTTCTCCTAGGGCGGAGTCACCTAGTGCAG	3250 fluorescence intensity (a.u.)
CAAAATCCTGATAATGATCGATTGTCCCCGCTATGAACACCGGAGTCACCTAGTGCAG	3200 fluorescence intensity (a.u.)
GGAAACTAACATGTTAATTAGCACATAAGTAATTAAGTATCGGAGTCACCTAGTGCAG	32300 fluorescence intensity (a.u.)
AATAATTGAATTGATTCCATATTTATGGAATTCATGTGTCCGGAGTCACCTAGTGCAG	49700 fluorescence intensity (a.u.)
TCTGCAAATTAATAATTGAGCCGTCCATTTCACCATTAGACGGAGTCACCTAGTGCAG	29300 fluorescence intensity (a.u.)

Sequence	binding signal
ATTATTCTTCTATCAATTATCTCCTCCCAAATCGTGTGATCGGAGTCACCTAGTGCAG	20900 fluorescence intensity (a.u.)
CCGTCAATATAATTGAAATAAAGGAGAACTAGCTATACTTCGGAGTCACCTAGTGCAG	17400 fluorescence intensity (a.u.)
TACACCTCTAATTATCCGCTTCACATGCTCGCTCTCTTCTCGGAGTCACCTAGTGCAG	5080 fluorescence intensity (a.u.)
GTGACCATCAATTTGTACTTAATAGGTGGATCCATTATTTCGGAGTCACCTAGTGCAG	10800 fluorescence intensity (a.u.)
GCTAATTTATACAATAGTTGCTTACTATAGAATTAATGCACGGAGTCACCTAGTGCAG	27200 fluorescence intensity (a.u.)
ATTAAGAATTGACGACTAGCTAGCTAGTATATATGTGTGTCGGAGTCACCTAGTGCAG	3250 fluorescence intensity (a.u.)
GTTCAAATTGGATCGTGACGAGGAAGCCTTTTGCCGTCGTCGGAGTCACCTAGTGCAG	30200 fluorescence intensity (a.u.)
AGAATAATTAGCCATAAATGTAAATGCATGTGTCAAATCTCGGAGTCACCTAGTGCAG	13200 fluorescence intensity (a.u.)
TTTGATATGTTTGAATCAAACTGATTTAGTTTTCACATTTCGGAGTCACCTAGTGCAG	6380 fluorescence intensity (a.u.)
TACATGATTTTGTTTTCCATATTATTACCAGTATCATATGCGGAGTCACCTAGTGCAG	15600 fluorescence intensity (a.u.)
ATTTTATAATTAGCTGTGTAGCTCCATCGTTTGGCTTATACGGAGTCACCTAGTGCAG	10900 fluorescence intensity (a.u.)
TTAATTAGAGCAAATTAAGATAATGTAGCCTTCAAATTTCCGGAGTCACCTAGTGCAG	21400 fluorescence intensity (a.u.)
CTCAATTATAATCATGTTCGATTTTCAAATCTCAACGATACGGAGTCACCTAGTGCAG	9770 fluorescence intensity (a.u.)
TCAACTCCATCTGGTCATCAATCACTCTACCTTCATCTTCCGGAGTCACCTAGTGCAG	5420 fluorescence intensity (a.u.)
AAGTAATTGAAATGGTTGAATGGTTCATACAATTCAATCACGGAGTCACCTAGTGCAG	17400 fluorescence intensity (a.u.)
CAATGATAAATGACAGTCTTACCCTTTCATCTCCCCTTCACGGAGTCACCTAGTGCAG	7210 fluorescence intensity (a.u.)
GCCAACTAATCACTGATAATGGGCTCACTGCAATTGCAAGCGGAGTCACCTAGTGCAG	15000 fluorescence intensity (a.u.)
ATCTTACCTTGATTGTAAATTTGTGATCTGCAATGCCCATCGGAGTCACCTAGTGCAG	25700 fluorescence intensity (a.u.)
CCGTAAATTAAGCCACGTTCTAGAGGCGCATAACGTCAAGCGGAGTCACCTAGTGCAG	4460 fluorescence intensity (a.u.)
CATAAATCATTTCTTTTGTTTTCAAACTAAGCATATTTGACGGAGTCACCTAGTGCAG	4540 fluorescence intensity (a.u.)
CCATAGATTGCAAACTTATATAACCTCGCTCGCACGGAGACGGAGTCACCTAGTGCAG	11000 fluorescence intensity (a.u.)

Sequence	binding signal
GCTGATTAAGAAGGAGACCTCTCGGTTGATGCTAGCTGAACGGAGTCACCTAGTGCAG	11500 fluorescence intensity (a.u.)
ACACAAGATTAATTAAGGAGAGGTGAGTTAGTATAGAGGTCGGAGTCACCTAGTGCAG	5940 fluorescence intensity (a.u.)
ACTAAAATTATATTAGATACTTTCTTGGTATGGATTAATGCGGAGTCACCTAGTGCAG	5510 fluorescence intensity (a.u.)
CGCGCATCAATCTCCATCCTACCACCAGCAATGATGCGGGCGGAGTCACCTAGTGCAG	3800 fluorescence intensity (a.u.)
TTTTAATAAACATACTCAATGACCACGCACTTCTGCTGTACGGAGTCACCTAGTGCAG	3410 fluorescence intensity (a.u.)
AGATAATTGCTTATGGAACAAGTTTTCTGTAGTAGTAGATCGGAGTCACCTAGTGCAG	31400 fluorescence intensity (a.u.)
AATAATTAGTTTCTCGTTCATTGCAAATTGCAGCGAGATTCGGAGTCACCTAGTGCAG	19000 fluorescence intensity (a.u.)
TCTTGATCCTGATGAAATTGAAGAAGAGCAGCGTGAGAGGCGGAGTCACCTAGTGCAG	5840 fluorescence intensity (a.u.)
TTTGACGTGACAAAATCGGTGCGTGTCGTGGTGGGGCCCGCGGAGTCACCTAGTGCAG	6590 fluorescence intensity (a.u.)
TCTTCATGCCACATAATTGGCTGCTCCTTTAGGGCACTCACGGAGTCACCTAGTGCAG	4570 fluorescence intensity (a.u.)
TATTGATTGTATGATTTGGAGAAAATCCAACCTCCGCCCCCGGAGTCACCTAGTGCAG	51500 fluorescence intensity (a.u.)
ATATCATATTAATTTATTTCAAGTTTGTTTGGTACGTAAACGGAGTCACCTAGTGCAG	5060 fluorescence intensity (a.u.)
GAGGTGGGATAATTATTTTGCTATTGTATAAACGAATGATCGGAGTCACCTAGTGCAG	5240 fluorescence intensity (a.u.)
CAAGATGTTAATTGTTAAATGGGTCACTTCCTCATCTCTCCGGAGTCACCTAGTGCAG	27700 fluorescence intensity (a.u.)
CATCCATCACATATTTTACAGTGTCGCTATTCTCAATTAACGGAGTCACCTAGTGCAG	4100 fluorescence intensity (a.u.)
GCGACACAGACTGATGGGCTTAACTGGGCCCACGTCACTACGGAGTCACCTAGTGCAG	5330 fluorescence intensity (a.u.)
CGGCGGCGGTGGTGGGGAGGAGGAGGGCCAGCGGCAGCAACGGAGTCACCTAGTGCAG	4280 fluorescence intensity (a.u.)
CTGAATTCTGACATGAATGGCAATGGATAATTTTGCAGCACGGAGTCACCTAGTGCAG	5540 fluorescence intensity (a.u.)
GTTACGGCTGTCAATTATGAAATGAATCGGAGAGAATATCCGGAGTCACCTAGTGCAG	10300 fluorescence intensity (a.u.)
CTAGATATAACTGCACACATTTATATTATATAATCTTTGACGGAGTCACCTAGTGCAG	4590 fluorescence intensity (a.u.)
TGGAGGAATTGATTGTAGACCCTTGAAGGGAGTACAATAACGGAGTCACCTAGTGCAG	10100 fluorescence intensity (a.u.)

Reference: paper PMC7819943, “Rice protein-binding microarrays: a tool to detect cis-acting elements near promoter regions in rice”
